Measurements from the supplement of paper PMC4166925.
± gives the standard deviation of the averaged measurements. Over roughly 33,000 sequences, “E-score (dimensionless, -0.5 to 0.5)” has its median near -0.046; the highest 2% begin near 0.36. The list shows a part of the results.

What follows are sequences tested on T1, SpTbr T-box DNA-binding domain (GST fusion) (assay: PBM E-score of 8-mer (E-score (dimensionless, -0.5 to 0.5)); Tbr is Tbrain of the sea star Patiria miniata (Pm) or the sea urchin Strongylocentrotus purpuratus (Sp); higher = stronger binding preference; most listed sequences are background and not binding sites). Settings: the construct has about 5 more residues each side.
T1 sequence: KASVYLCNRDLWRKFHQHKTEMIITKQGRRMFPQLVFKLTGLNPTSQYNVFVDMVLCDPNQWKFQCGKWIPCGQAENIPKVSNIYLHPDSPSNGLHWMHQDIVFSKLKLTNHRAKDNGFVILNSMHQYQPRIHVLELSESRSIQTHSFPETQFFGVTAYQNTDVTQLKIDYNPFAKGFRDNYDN
Method in brief: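 Primer extension turned Universal Agilent oligonucleotide arrays double-stranded. They were incubated with 200 nM protein in PBS (pH 7.5); the protein was a GST-fused Tbr T-box DNA-binding domain expressed in BL21 E. coli at 20 °C and purified on glutathione. Every ungapped 8-mer was scored from the scanned, quantified probe intensities, and the Universal PBM Analysis Suite gave each an enrichment E-score averaged over duplicate arrays.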
GCCCAGAA was tested, and the “PBM E-score of 8-mer” value was -0.157 ± 0.0081. CCTTAGCG was tested, and the “PBM E-score of 8-mer” value was 0.185 ± 0.0076. GCGCGCAC was tested, and the “PBM E-score of 8-mer” value was 0.243 ± 0.074. For CGGTGACG, the “PBM E-score of 8-mer” value was 0.233 ± 0.02. With CTCATCTC the “PBM E-score of 8-mer” value was 0.0131 ± 0.028. In the case of ATAACTAT, the “PBM E-score of 8-mer” value is reported as 0.0245 ± 0.069. In the case of GGCATGAC, the “PBM E-score of 8-mer” value is reported as 0.093 ± 0.12. TACTAATA was tested, and the “PBM E-score of 8-mer” value was -0.068 ± 0.086. For CACTTTTA, the “PBM E-score of 8-mer” value was 0.278 ± 0.033. For AATCCGGA, the “PBM E-score of 8-mer” value was -0.0833 ± 0.003. AATGCGTG was tested, and the “PBM E-score of 8-mer” value was 0.253 ± 0.028. With CGCCTCAA the “PBM E-score of 8-mer” value was 0.0699 ± 0.016. In the case of CGTGTGTA, the “PBM E-score of 8-mer” value is reported as 0.096 ± 0.044. AACGCGAA was tested, and the “PBM E-score of 8-mer” value was 0.165 ± 0.044. With GTCGAGTA the “PBM E-score of 8-mer” value was -0.00253 ± 0.043. GTTAGACA was tested, and the “PBM E-score of 8-mer” value was -0.0877 ± 0.027. With ACGCCGCC the “PBM E-score of 8-mer” value was 0.0447 ± 0.023. In the case of AGTGAGTA, the “PBM E-score of 8-mer” value is reported as 0.0289 ± 0.017. For AACCTCAA, the “PBM E-score of 8-mer” value was -0.158 ± 0.018. CATATGCG was tested, and the “PBM E-score of 8-mer” value was 0.113 ± 0.024. For GGCTCTTA, the “PBM E-score of 8-mer” value was -0.258 ± 0.03. GTCCGGTA was tested, and the “PBM E-score of 8-mer” value was -0.322 ± 0.0059. In the case of ATTTACCG, the “PBM E-score of 8-mer” value is reported as -0.131 ± 0.054. In the case of CGTATTTC, the “PBM E-score of 8-mer” value is reported as -0.182 ± 0.051. With ATGGATCC the “PBM E-score of 8-mer” value was -0.114 ± 0.064. With GATTCGAC the “PBM E-score of 8-mer” value was 0.0011 ± 0.011. With ATGGGGTA the “PBM E-score of 8-mer” value was -0.255 ± 0.076. In the case of TCGGAAGA, the “PBM E-score of 8-mer” value is reported as -0.113 ± 0.029. GTACCAAA was tested, and the “PBM E-score of 8-mer” value was -0.231 ± 0.077. In the case of GGGTTGTA, the “PBM E-score of 8-mer” value is reported as 2.5e-05 ± 0.05. For CGAGGACG, the “PBM E-score of 8-mer” value was 0.00433 ± 0.041. In the case of TGCGCGAA, the “PBM E-score of 8-mer” value is reported as 0.349 ± 0.036. With TCCATCGA the “PBM E-score of 8-mer” value was -0.0839 ± 0.076. With GGTAGAGA the “PBM E-score of 8-mer” value was -0.0828 ± 0.023. For AAATCGCG, the “PBM E-score of 8-mer” value was 0.35 ± 0.018. CAATACCA was tested, and the “PBM E-score of 8-mer” value was 0.0567 ± 0.032. With TCTACTAA the “PBM E-score of 8-mer” value was 0.0508 ± 0.017. ACGGAGCA was tested, and the “PBM E-score of 8-mer” value was -0.0953 ± 0.0042. For ACTTTACT, the “PBM E-score of 8-mer” value was -0.114 ± 0.017. CAACTGGC was tested, and the “PBM E-score of 8-mer” value was 0.195 ± 0.0086. CCTCCACC was tested, and the “PBM E-score of 8-mer” value was 0.0261 ± 0.016. With GAGATCGA the “PBM E-score of 8-mer” value was 0.0777 ± 0.032. In the case of GCTGACCC, the “PBM E-score of 8-mer” value is reported as -0.0189 ± 0.062. With ACGATCAA the “PBM E-score of 8-mer” value was 0.00066 ± 0.0065. With GCGGCGAA the “PBM E-score of 8-mer” value was -0.0339 ± 0.054. For TAGTAGAA, the “PBM E-score of 8-mer” value was -0.162 ± 0.045. ATTGTAGA was tested, and the “PBM E-score of 8-mer” value was -0.0244 ± 0.073. For GGGCTTAA, the “PBM E-score of 8-mer” value was -0.202 ± 0.041. AGTTATTC was tested, and the “PBM E-score of 8-mer” value was -0.174 ± 0.03. In the case of ATACAGTG, the “PBM E-score of 8-mer” value is reported as -0.0602 ± 0.086. For ACTTGGTA, the “PBM E-score of 8-mer” value was 0.107 ± 0.039. In the case of CTGGGGAC, the “PBM E-score of 8-mer” value is reported as 0.0912 ± 0.011. In the case of GGGGTACC, the “PBM E-score of 8-mer” value is reported as -0.1738 ± 0.00025. AGTGGTTA was tested, and the “PBM E-score of 8-mer” value was -0.0707 ± 0.0042. With AGGGTAGG the “PBM E-score of 8-mer” value was -0.0233 ± 0.0073. For CCATACGC, the “PBM E-score of 8-mer” value was -0.0539 ± 0.026. For AAGCCTTA, the “PBM E-score of 8-mer” value was -0.28 ± 0.018. With GTCGTGCA the “PBM E-score of 8-mer” value was -0.0681 ± 0.058. With AAAGACTG the “PBM E-score of 8-mer” value was -0.176 ± 0.054. CGGGTCAG was tested, and the “PBM E-score of 8-mer” value was -0.0709 ± 0.016. For CGCGAAAG, the “PBM E-score of 8-mer” value was 0.387 ± 0.015. CTTACTAA was tested, and the “PBM E-score of 8-mer” value was -0.19 ± 0.0069. In the case of GATGAGAC, the “PBM E-score of 8-mer” value is reported as -0.0778 ± 0.034. In the case of CTGCCTTC, the “PBM E-score of 8-mer” value is reported as -0.126 ± 0.0091. GCTCACCC was tested, and the “PBM E-score of 8-mer” value was 0.0214 ± 0.062. With AAGCCCAT the “PBM E-score of 8-mer” value was -0.202 ± 0.0073. For AACATCAT, the “PBM E-score of 8-mer” value was -0.268 ± 0.054. For AAGGCCAA, the “PBM E-score of 8-mer” value was -0.268 ± 0.038. CCTATTGA was tested, and the “PBM E-score of 8-mer” value was -0.21 ± 0.019. For AGACCTAT, the “PBM E-score of 8-mer” value was -0.142 ± 0.047. In the case of AGGCGTCC, the “PBM E-score of 8-mer” value is reported as 0.0702 ± 0.0083. With GGCGGAAC the “PBM E-score of 8-mer” value was -0.171 ± 0.037. With CATCCAGC the “PBM E-score of 8-mer” value was 0.0778 ± 0.0077. In the case of CCATGGCC, the “PBM E-score of 8-mer” value is reported as -0.28 ± 0.015. In the case of GAGCTAGA, the “PBM E-score of 8-mer” value is reported as 0.0345 ± 0.014. With AACAAAAG the “PBM E-score of 8-mer” value was 0.0359 ± 0.1. With GACTCTTA the “PBM E-score of 8-mer” value was 0.0596 ± 0.018. For CCCTGAAC, the “PBM E-score of 8-mer” value was -0.0744 ± 0.038. CTCTGAGA was tested, and the “PBM E-score of 8-mer” value was -0.207 ± 0.0074. In the case of ATGTCTTG, the “PBM E-score of 8-mer” value is reported as -0.0305 ± 0.0035. With AAGCGAAG the “PBM E-score of 8-mer” value was -0.0668 ± 0.088. AGTGAATG was tested, and the “PBM E-score of 8-mer” value was 0.113 ± 0.012. In the case of ACAATCAT, the “PBM E-score of 8-mer” value is reported as -0.00293 ± 0.049. With GCGCAAGA the “PBM E-score of 8-mer” value was 0.0184 ± 0.044. TACGATCA was tested, and the “PBM E-score of 8-mer” value was -0.116 ± 0.0065. With CGTGTATA the “PBM E-score of 8-mer” value was -0.0736 ± 0.07. ATAGCGCA was tested, and the “PBM E-score of 8-mer” value was 0.17 ± 0.014. For GACATAGA, the “PBM E-score of 8-mer” value was -0.106 ± 0.057. For CTCAAAAG, the “PBM E-score of 8-mer” value was -0.147 ± 0.012. CGTATGCC was tested, and the “PBM E-score of 8-mer” value was -0.271 ± 0.057. TACCGCCA was tested, and the “PBM E-score of 8-mer” value was 0.0912 ± 0.014. In the case of GCGCCAGA, the “PBM E-score of 8-mer” value is reported as 0.0931 ± 0.034. With TCCATTAA the “PBM E-score of 8-mer” value was -0.206 ± 0.075. With AAAGTGCG the “PBM E-score of 8-mer” value was 0.337 ± 0.006. GTATCCAC was tested, and the “PBM E-score of 8-mer” value was 0.0277 ± 0.049. In the case of TTAGCAAA, the “PBM E-score of 8-mer” value is reported as 0.129 ± 0.027. In the case of ATTCATAG, the “PBM E-score of 8-mer” value is reported as -0.296 ± 0.054. GCTTGTAC was tested, and the “PBM E-score of 8-mer” value was -0.0816 ± 0.042. In the case of CAATTGGC, the “PBM E-score of 8-mer” value is reported as 0.0712 ± 0.018. With CCGGAGCA the “PBM E-score of 8-mer” value was -0.16 ± 0.027. For ACCGAACA, the “PBM E-score of 8-mer” value was 0.0912 ± 0.1. In the case of TGTACAAA, the “PBM E-score of 8-mer” value is reported as -0.0805 ± 0.017. AGCTCTGC was tested, and the “PBM E-score of 8-mer” value was -0.123 ± 0.0024. In the case of AGCTTGCG, the “PBM E-score of 8-mer” value is reported as 0.0783 ± 0.029. AATGTAGA was tested, and the “PBM E-score of 8-mer” value was -0.248 ± 0.068. With AGAGTTAG the “PBM E-score of 8-mer” value was -0.00705 ± 0.085. CTGTATAA was tested, and the “PBM E-score of 8-mer” value was -0.236 ± 0.033. AAATTAAT was tested, and the “PBM E-score of 8-mer” value was -0.133 ± 0.0065. With TGACGCCA the “PBM E-score of 8-mer” value was 0.299 ± 0.004. In the case of GAGCCGAC, the “PBM E-score of 8-mer” value is reported as 0.00354 ± 0.049.
